Assay results from publication PMC12136788.
Some of the results follow.

T1: UNK ZnF1-3 (human, UniProt Q9C0B0 31-174)
T1 sequence: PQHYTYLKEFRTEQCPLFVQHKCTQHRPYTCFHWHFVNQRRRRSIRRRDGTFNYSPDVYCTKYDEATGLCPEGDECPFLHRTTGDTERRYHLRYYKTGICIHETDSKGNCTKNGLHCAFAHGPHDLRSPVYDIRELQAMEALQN

B1: chr18:21005031:21005032:-_ENSMUSG00000033382_ENSMUST00000025177|mus_hu|motif|central (ssRNA)
RNA: GGGAGUUCUACAGUCCGACGAUCAAACUUCCAAAGCAAUGACAAAUCAGUCAACAAAAGUAGAACUUUCAAAGGGUUUCGGAAAGCCACUUCCACUGUAAUUGGUUCUUCUACAACUGCAAGUGGAAAUCUUGAAUUAUCUGACAACAGAGGAUUGAGCAUCA
B2: chr4:95690885:95690886:+_ENSMUSG00000028572_ENSMUST00000156910|mus_mus|mus_mus_mus_hu_False|38_108 (ssRNA)
RNA: GGGAGUUCUACAGUCCGACGAUCUUUAUUUUUAGAAAAAUACCAUGCUAAAAUAUUUUCAAAGGCUUAUUUUAUUUUACCAGAAGUCACAGGCAAGCAGACACCAUAAGAAUAUAUGAAAAUGAAACUCAACAAUAUAACUGUCAACAGAGGAUUGAGCAUCA
B3: chr2:130852214:130852215:+_ENSMUSG00000027312_ENSMUST00000028781|mus_mus|motif|central (ssRNA)
RNA: GGGAGUUCUACAGUCCGACGAUCCAGGUGGAUCUUUGUGAGUUCAGUCCAGCCUGAUCUACAUAGUGAGUUCCAGGCCAGCGGGGACUACACAGUGAGACCCUGUCUCCAAAAACCAAAACAAAACAAAACAAGGCCCCCAUCCAACAGAGGAUUGAGCAUCA
B4: chr17:64801638:64801639:+_ENSG00000154229_ENST00000413366|hu_mus|hu_hu_hu_mus_False|18_68 (ssRNA)
RNA: GGGAGUUCUACAGUCCGACGAUCUAUAUAUAUAUAUACAUAUGUACACAUAUAUAGUAAAACCCUAAUCUAUCACGUAAAGUAGCCAUUCAUUUUUAAAAUUACAUCUACAUUAAAAAAGUAAUCUAUCUGAUAGAGUGCCAGCAACAGAGGAUUGAGCAUCA
B5: chr10:133753640:133753641:+_ENSG00000175470_ENST00000482010|hu_mus|FALSE|FALSE (ssRNA)
RNA: GGGAGUUCUACAGUCCGACGAUCAGUUUUAUCAUUUGUAGAGAGUAGAAAAUGAGCAGCAUUCUGUUGCGGUAACCACCUGAUUUUAUUAAUUUUUUCUUCAAUUUCUAGACUUUUCAAAUAGUCAAACUCUGGCUCAUGACUCAACAGAGGAUUGAGCAUCA
B6: 59659724_59663069_2067_3pUTR_ENSMUSG00000039585_ENSMUST00000128341|mouse|control|control (ssRNA)
RNA: GGGAGUUCUACAGUCCGACGAUCGAACACCAAUGGACAAAGUCUUAGUAUCUUGUUCCAAAUCUUUACUAUUCAGAAGUGCAUGAUUAAUACGAAACACUAUCCAGUCAAACAGAGCACUAUAUAAAGACUUAGCCAUGGAGUCAACAGAGGAUUGAGCAUCA
B7: 28147991_28148111_2029_3pUTR_ENSMUSG00000031483_ENSMUST00000033873|mouse|control|control (ssRNA)
RNA: GGGAGUUCUACAGUCCGACGAUCCAGUUUCCUAGGGUGACUCACUGGAGCCGACUCUCAAGUGGCUGCCUGCUCUCUUCAUCAGUGUCAGACAAAGCCCCAGCACAGGCCACAGGCACUACUACUUGGGUGUCAUCUGGCUGGCAACAGAGGAUUGAGCAUCA
B8: chr1:60041781:60041782:+_ENSMUSG00000041040_ENSMUST00000036540|mus_hu|mus_mus_mus_hu_False|18_28 (ssRNA)
RNA: GGGAGUUCUACAGUCCGACGAUCAAGUUUACAAUAGUAAAGUAAAUGCAGUAGUGGCAAAUUUUCUUUUAUUUUCCUUCACAAAAGAAAAUCUUUAUAACCCAGUCCAAUCCCAGACAGAGAAAGCAGCUAUAAAUUCUGACUCAACAGAGGAUUGAGCAUCA
B9: chr1:52222005:52222006:-_ENSMUSG00000026103_ENSMUST00000114513|mus_mus|FALSE|FALSE (ssRNA)
RNA: GGGAGUUCUACAGUCCGACGAUCACCAACAGUUAGGCAGUAGAGGAAGAGAAGAUACUCAGGGCCUCCCACAAAGGGGUGCUAUCUUGAUGCAGACAUUUGACAGCAGGAUUCAAAGUAAGUGUUAUUUGUAGCUUUUCCUAACAACAGAGGAUUGAGCAUCA
B10: chr7:56126341:56126342:+_ENSG00000146731_ENST00000540286|hu_mus|hu_hu_hu_mus_True|68_108 (ssRNA)
RNA: GGGAGUUCUACAGUCCGACGAUCCAUAUUUCUCCUUUUGGCUCUGCGCAGAGCUACGAUCCCUUCUUUUGAAAGAGCAUCUAAGGAAAAGGGGUCAAUCCCCUUUUGAUUAAUAACGACAAAUCCUUUAUCUGAGUCACCACACAACAGAGGAUUGAGCAUCA
B11: chr14:66974463:66974464:+_ENSMUSG00000022044_ENSMUST00000074523|mus_mus|FALSE|FALSE (ssRNA)
RNA: GGGAGUUCUACAGUCCGACGAUCUUGUAGGAUGAUUUAUUCAGGGGAUCAGACAAGAAGCAAGAGCAGAACAGAGACACUAGUGGGAGUUCCUUCAUCUUCUCCUUAUAGGCUGCAAGAGUCAUGUUGGCUGGAAUCUGGUGGCAACAGAGGAUUGAGCAUCA
B12: 234746276_234749352_2199_CDS_ENSG00000123485_ENST00000411486|human|control|control (ssRNA)
RNA: GGGAGUUCUACAGUCCGACGAUCCCUGUAAGACGUGUUCUCUCCUCUCUCUUCUGAGUUGGGCUGUGAAGAGCUGCCCUGGUCUCCCGGUCUGACGGUGUUGUCCACCCCAUCUGAGGCACCCAGGGAAUUGCCCUGGCGUCCCAACAGAGGAUUGAGCAUCA
B13: chr11:44375045:44375046:+_ENSMUSG00000019189_ENSMUST00000019333|mus_mus|FALSE|FALSE (ssRNA)
RNA: GGGAGUUCUACAGUCCGACGAUCACAGAGGGCCACAACAAACUCCAGCAGACGAUAAGUGCCAUUCACGUAGUAGAUGACGUCAUCCAUGUUUUCCACGGGCUCUUUGCGGAAUUCCUCAACCAUAAAUAAGACGUAAAUAAACAACAGAGGAUUGAGCAUCA
B14: chr8:104447970:104447971:+_ENSG00000164934_ENST00000297579|hu_hu|FALSE|FALSE (ssRNA)
RNA: GGGAGUUCUACAGUCCGACGAUCAUAUACCUCCCUGCUUCGACUUUUGUCUACAGGAAAGAUUCGAAUAGAUUUAUCGAAACUAGCAGACACAAACUCCUUCCCAGUGGGAGAGUAAUCCACAUCAAGCACUGCAGAUACAUGCAACAGAGGAUUGAGCAUCA

Target: T1, UNK ZnF1-3
Experiment: nsRBNS (natural sequence RNA bind-n-seq); RBNS binding buffer (assumed for nsRBNS): 25 mM Tris pH 7.5, 150 mM KCl, 3 mM MgCl2, 0.01% Triton X-100, 500 ug/ml BSA, 20 U/ml SUPERase-In, 4 C; UNK is unkempt and MSI1 is Musashi-1; names of the RNAs are library labels; protein concentration not given here; high values mean tight binding

Q: Which binding signal does the source give for B1 here?
A: Its binding signal is 0.938 enrichment R.

Q: How did the binding signal turn out when B2 was run?
A: The binding signal was 2.61 enrichment R.

Q: With B3 as the binder, how does the binding signal read?
A: The binding signal was 0.958 enrichment R.

Q: B4 was tested. Which binding signal did it give?
A: The binding signal was 0.935 enrichment R.

Q: How did the binding signal turn out when B5 was run?
A: The binding signal was 1.02 enrichment R.

Q: For B6, which binding signal is on record?
A: The binding signal was 1.04 enrichment R.

Q: Which binding signal does the source give for B7 here?
A: The binding signal was 0.586 enrichment R.

Q: For B8, which binding signal is on record?
A: Its binding signal is 0.819 enrichment R.

Q: How did the binding signal turn out when B9 was run?
A: The binding signal was 1.34 enrichment R.

Q: With B10 as the binder, how does the binding signal read?
A: The binding signal was 1.64 enrichment R.

Q: B11 was tested. Which binding signal did it give?
A: The binding signal was 1.71 enrichment R.

Q: How did the binding signal turn out when B12 was run?
A: The binding signal was 0.781 enrichment R.

Q: How did the binding signal turn out when B13 was run?
A: The binding signal was 1.74 enrichment R.

Q: With B14 as the binder, how does the binding signal read?
A: Its binding signal is 0.894 enrichment R.
